In PubChem BioAssay AID2675 (National Center for Advancing Translational Sciences (NCATS), 2010):
Screen size: about 280,000 compounds; about 100 (0.036%) were called active. This list was built around the results that the source calls inconclusive (neither active nor inactive); the mix of calls is not that of the screen. Calls follow the shape of the dose curve; as a rule, active = well fitted inhibition curve with a large enough effect in the signal ratio, with a control signal flat (not every such curve was filed as active); inconclusive = small, poorly fitted or top-dose-only effect, or effect the other way, or a change in a side signal; inactive = no such curve, though single readings can be large or run the other way; the % refers to the signal ratio. A potency beside an inconclusive call is a rough fit, not a confirmed value. A note “side channel” means that the fit belongs to a control or component signal, not to the main read-out.

biological target: Muscleblind-like protein 1 (Homo sapiens) (UniProt Q9NR56); assay: qHTS Assay for Inhibitors of MBNL1-poly(CUG) RNA binding; conditions: TR-FRET MBNL1-His/biotin-(CUG)12 binding, 665/545 ratio; activity change, negative = inhibition: at 57.5 µM (top of the series)
Outline: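 Compounds (final 92 nM to 58 uM) are added to His-tagged MBNL1 and biotin-(CUG)12, then terbium anti-His antibody and streptavidin-XL665 (5 nM final). After 60 min at room temperature, the 665/545 nm ratio is read.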
% is scaled to controls: 0 for no effect and ±100 for the full control effect; potency is read from the fitted curve at half-maximal effect; tags tell the direction and shape of the fitted curve or compound fluorescence and quenching.

Sequence of UniProt Q9NR56 (Q9NR56 whole entry, looked up): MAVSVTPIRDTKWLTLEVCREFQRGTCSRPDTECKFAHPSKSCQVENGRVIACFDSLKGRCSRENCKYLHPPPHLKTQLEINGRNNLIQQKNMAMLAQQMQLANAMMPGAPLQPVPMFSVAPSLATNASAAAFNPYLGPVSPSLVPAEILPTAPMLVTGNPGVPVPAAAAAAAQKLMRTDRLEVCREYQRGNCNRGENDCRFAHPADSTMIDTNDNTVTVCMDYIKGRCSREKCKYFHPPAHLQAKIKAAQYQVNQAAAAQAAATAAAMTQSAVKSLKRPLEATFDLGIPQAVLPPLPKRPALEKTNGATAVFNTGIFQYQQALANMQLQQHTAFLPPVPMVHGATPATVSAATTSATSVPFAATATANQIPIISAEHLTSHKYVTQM

SMILES	activity change, negative = inhibition	Potency
Cc1noc(/C=C/c2nn(C)cc2Cl)c1[N+](=O)[O-]	inactive: 7.21%	
CN(C)c1nc(NCc2ccccc2)nc(N/N=C/c2ccc3c(c2)OCO3)n1	inactive: 2.95%	
C=CCNC(=O)NC(=O)c1csc([N+](=O)[O-])c1		inconclusive: 3.16 µM [quencher, side channel, full curve]
Cn1c(N)c(C(=O)Nc2ccc3ccccc3c2)sc1=S	inactive: -1.28%	
CCCc1cc(C(=O)Nc2ccccc2SC)no1		inconclusive: 20 µM [fluorescent, side channel, partial curve, poor fit]
O=C(N/N=C/c1cc2c3c(c1O)CCCN3CCC2)c1ccccc1O		inconclusive: 14.1 µM [quencher, partial curve]
CN1C(=O)/C(=C/c2ccccc2OCc2ccccc2F)NC1=S	inactive: -3.55%	
CC(C)C(NC(=O)OC(C)(C)C)C(=O)N1CCCC1C(=O)NC(Cc1ccccc1)C(N)=O (stereo unspecified)	inactive: 5.83%	
COc1ccc(OC)c(/C=C/C(=O)N(C)CC(=O)Nc2ccc(C)cc2)c1		inconclusive: 28.2 µM [quencher, partial curve]
CCc1ccc[n+](-c2[nH]c(=O)sc2/C=N/N=C(\[O-])c2ccncc2)c1		inconclusive: 25.1 µM [quencher, partial curve]
Cc1ccc(C)c(Cn2nnc3c(=O)[nH]c(C(=O)NCC4CCCO4)nc32)c1 (stereo unspecified)		inconclusive: 39.8 µM [fluorescent, side channel, single point]
Nc1[nH]c(N=NC(=O)c2ccc(F)cc2)c2ccccc12		inconclusive: 22.4 µM [quencher, side channel, partial curve]
COc1cc(C(=O)Nc2ccc([N+](=O)[O-])cn2)cc(OC)c1OC		inconclusive: 8.91 µM [quencher, side channel, full curve]
O=C(Cn1c(=O)oc2ccccc21)Nc1ccc(Br)cc1	inactive: -4.6%	
CCOc1cc(C=O)cc(N=Nc2cccc([N+](=O)[O-])c2)c1O		inconclusive: 3.16 µM [quencher, side channel, full curve]
CC(CS(=O)(=O)c1ccc2c(c1)NC(=O)CS2)C(=O)N1CCN(c2cccc(Cl)c2)CC1 (stereo unspecified)	inactive: 5.11%	
Oc1ccc(/C=N/NC(=S)N/N=C/c2ccc(O)cc2)cc1		inconclusive: 14.1 µM [quencher, side channel, partial curve]
CCSc1oc(-c2ccco2)nc1S(=O)(=O)c1ccccc1		inconclusive: 7.94 µM [quencher, side channel, full curve]
CCN(c1cccc(C)c1)c1ncnc2nc[nH]c12	inactive: -0.0675%	
CCN(CC)C(=O)C1CCN(S(=O)(=O)c2c(C)noc2/C=C/c2cccc(C)c2)CC1		inconclusive: 35.5 µM [quencher, side channel, single point]
COc1cc(/C=N/NC(=O)CNC(=O)c2cccs2)ccc1O		inconclusive: 12.6 µM [quencher, side channel, partial curve]
COc1ccc(CC(=O)n2[nH]c(=O)c3ccccc3c2=O)cc1OC		inconclusive: 35.5 µM [quencher, side channel, single point]

SMILES	activity change, negative = inhibition	Potency
CCOC(=O)C1CCN(C(=S)Nc2ccc(CC)cc2)CC1	inactive: -1.97%	
CC(C(=O)NCC1CCCO1)N(C(=O)c1snc(C(N)=O)c1N)c1ccccc1 (stereo unspecified)		inconclusive: 14.1 µM [quencher, side channel, partial curve, poor fit]
O=C(CN1CCOCC1)Nc1ncc(Cc2cccc3ccccc23)s1		inconclusive: 35.5 µM [quencher, side channel, single point]
COc1ccc(-c2nc3ncccn3c2Br)cc1		inconclusive: 14.1 µM [quencher, side channel, partial curve]
O=C1NC(=O)/C(=C\c2ccc(OCc3cccc([N+](=O)[O-])c3)cc2)N1		inconclusive: 7.08 µM [quencher, side channel, partial curve]
Cc1cc(C)cc(NC(=S)NCc2cccn2C)c1	inactive: -0.725%	
CC(=O)N=c1sccn1CC(=O)c1ccc([N+](=O)[O-])cc1		inconclusive: 14.1 µM [quencher, side channel, partial curve]
Fc1cccc(Cc2noc(CN3CCCN(C4Cc5ccccc5C4)CC3)n2)c1	inactive: -13%	
O=C(COC(=O)c1ccc(CO)cc1)Nc1ccc(OC(F)F)cc1	inactive: -2.57%	
Cc1cc2cc(CNC(=O)CC(C)C)ccc2n1C		inconclusive: 28.2 µM [quencher, single point]
Cc1cccc(OCc2nnc(SCC(=O)N3c4ccccc4CC3C)n2C)c1C (stereo unspecified)		inconclusive: 1.78 µM [quencher, side channel, full curve]
O=C(OC1CCOC1=O)c1cc(-c2ccccc2)nc2ccccc12 (stereo unspecified)		inconclusive: 17.8 µM [quencher, side channel, partial curve]
Cc1cc(C)nc(SCc2ccc(C(=O)N/N=C/c3cccc(O)c3O)cc2)n1		inconclusive: 0.562 µM [quencher, side channel, partial curve]
CCOc1ccc(NC2OC(C)C(O)C(O)C2O)c([N+](=O)[O-])c1 (stereo unspecified)		inconclusive: 3.98 µM [quencher, side channel, partial curve]
CCC(C)(C)NC(=O)c1cc([N+](=O)[O-])ccc1N1CCCCC1		inconclusive: 17.8 µM [quencher, side channel, partial curve]
COc1ccc(NC(=S)NC23CC4CC(CC(C4)C2)C3)cc1OC	inactive: 4.77%	
Cc1cc(C)nc(SCC(=O)N/N=C/c2cccn2-c2cccc(C(F)(F)F)c2)n1	inactive: 10.5%	
CC(C)(CO)NCc1ccc(Br)cc1		inconclusive: 8.91 µM [quencher, side channel, partial curve]
CSCCC(NC(=O)c1ccc([N+](=O)[O-])cc1Cl)C(=O)OCC(=O)NCCCc1ccccc1 (stereo unspecified)		inconclusive: 22.4 µM [quencher, side channel, partial curve, poor fit]
CCCc1nnc(NC(=O)c2nc(S(=O)(=O)Cc3cccc(C)c3)ncc2Cl)s1	inactive: 10.2%	
Nc1cc2c(cc1[N+](=O)[O-])OCO2		inconclusive: 14.1 µM [quencher, side channel, partial curve]
Oc1ccc(N=Cc2sc3ccccc3c2Cl)cc1		inconclusive: 28.2 µM [quencher, side channel, partial curve, poor fit]

SMILES	activity change, negative = inhibition	Potency
Cc1nnc(NC(=O)c2ccc(-c3ccc([N+](=O)[O-])cc3)o2)s1		inconclusive: 2.82 µM [quencher, side channel, full curve]
CC(=O)Nc1ccc(/C(C)=N/Nc2nc(Nc3ccccc3)nc(N3CCOCC3)n2)cc1	inactive: -3.35%	
NC(=S)Nc1ccc(C(F)(F)F)cc1Cl		inconclusive: 20 µM [fluorescent, side channel, partial curve]
CN=Cc1nc(-c2ccccc2)oc1O		inconclusive: 39.8 µM [quencher, side channel, single point]
O=C(Cn1cnc2cc([N+](=O)[O-])ccc2c1=O)Nc1cccc(S(=O)(=O)N2CCOCC2)c1		inconclusive: 7.08 µM [quencher, side channel, partial curve]
N=c1c(C(=O)NCC2CCCO2)cc2c(=O)n3ccccc3nc2n1Cc1ccc(Cl)cc1 (stereo unspecified)		inconclusive: 2.82 µM [quencher, side channel, full curve]
COc1ccccc1C(=O)N/N=C/c1ccc(Cl)s1		inconclusive: 22.4 µM [quencher, side channel, partial curve]
Oc1ccc(/C=N/NC(=S)N2CCOCC2)cc1		inconclusive: 28.2 µM [quencher, side channel, partial curve]
C=CCNC(=O)COC(=O)/C=C/c1cccs1		inconclusive: 31.6 µM [quencher, side channel, single point]
Cc1cc(NC(=O)CSc2nc3ccccc3n2CCC#N)no1	inactive: 0.53%	
O=[N+]([O-])c1cccc(CN2CCCCCC2)c1		inconclusive: 17.8 µM [quencher, side channel, partial curve]
O=C(CN1c2cccc3cccc(c23)S1(=O)=O)NCc1ccc2c(c1)OCO2		inconclusive: 25.1 µM [quencher, side channel, single point]
COc1cccc(C(=O)c2c(C)c(CCC#N)n3ccccc23)c1OC		inconclusive: 22.4 µM [quencher, side channel, partial curve]
Clc1cccc(OCCn2cncn2)c1Cl	inactive: 9.91%	
Cc1ccc2nc(CSc3nc(C)ccc3C#N)[nH]c2c1		inconclusive: 14.1 µM [quencher, partial curve]
Cc1cc(S(=O)(=O)N2CCC(N3CCCCC3)CC2)ccc1-n1cnnn1	inactive: 6.61%	
Cc1nn(CC(=O)N/N=C/c2cccs2)c(C)c1[N+](=O)[O-]	inactive: 8.37%	
C(=C\c1ccccc1)/C=N/Nc1ccc2nncn2n1		inconclusive: 3.16 µM [quencher, side channel, full curve]
Cc1ccccc1OCCNC(=S)Nc1ccccc1	inactive: -8.74%	
O=C1c2ccc(Br)cc2C(=O)N1c1ccc(Cl)cn1		inconclusive: 14.1 µM [quencher, partial curve]
COc1ccc(-c2nn(-c3ccccc3)cc2C2CC(c3cccs3)=NN2C(=O)CCC(=O)O)cc1 (stereo unspecified)	inactive: 0.755%	
CC1CCCCC1NC(=O)C1CCCN1S(=O)(=O)c1cccc2nsnc12 (stereo unspecified)		inconclusive: 12.6 µM [quencher, partial curve]
